Hit rate of the full screen: of about 420,000 compounds, about 50,000 (12%) were called active. Inconclusive means that the source gave no clear call. Such entries were picked first, then a sample of the others. The call rests on the fitted dose curve; in most records, active means well fitted inhibition curve with a large enough effect; inconclusive means small, poorly fitted or top-dose-only effect; inactive means flat fitted curve, though single readings scatter. Potencies of inconclusive entries are left out as doubtful fits.
Assay: qHTS for Inhibitors of human tyrosyl-DNA phosphodiesterase 1 (TDP1): qHTS in cells in presence of CPT; further: nearly all actives have a fitted effect of over 55% in size
Conditions: chicken DT40 Tdp1-/-;hTDP1 cells + 20 nM CPT, ATP luminescence, 48 h; activity change, negative = growth inhibition: at 46.2 µM (top of the series)
How it was run: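 Chicken DT40 Tdp1-/- cells complemented with human TDP1, 400 cells/well, exposed to compounds plus 20 nM camptothecin for at least 48 h at 37 C; viability read as ATP content by CellTiter-Glo luminescence.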
For COCc1c(C(=O)N2CCN(Cc3nc4ccccc4s3)CC2)oc2ccccc12, the Potency was inconclusive [inhibitor, single point].
For COc1ccc(C(=O)COC(=O)c2cc(S(=O)(=O)NCc3ccccc3)ccc2O)cc1, the Potency was inconclusive [inhibitor, single point].
For c1ccc(CCc2cn(C[C@H]3CC[C@@H]([C@@H]4CC[C@H](Cn5cc(CCc6ccccc6)nn5)O4)O3)nn2)cc1, the Potency was inconclusive [inhibitor, single point].
For Cc1cc(C)c(C#N)c(N2CCN(c3ccccc3)CC2)n1, the Potency was “inactive”.
In the case of COCCn1c(N)c(C(=O)NCC2CCCO2)c2nc3ccccc3nc21 (configuration not stated), the Potency is reported as inconclusive [inhibitor, single point].
With CCOc1cc(CNCc2ccncc2)cc(Br)c1OCc1ccc(F)cc1 the Potency was active: 10 µM.
In the case of O=C(NC(c1ccc2ccccc2n1)c1cccs1)C1CCN(Cc2cccc(C(F)(F)F)c2)CC1 (configuration not stated), the Potency is reported as active: 7.31 µM.
In the case of CC(=O)C(=Cc1ccc(-c2ccccc2)cc1)C(=O)c1ccccc1, the Potency is reported as active: 18.4 µM.
In the case of Cc1ccc(N2C(=O)C3CCCN3C2=S)cc1C (configuration not stated), the Potency is reported as inconclusive [inhibitor, partial curve, poor fit].
With CN(CCOCCOc1ccc(F)cc1)Cc1ccccc1 the Potency was inconclusive [inhibitor, single point].
For C[C@@H]1CN([C@@H](C)CO)C(=O)c2cc(NC(=O)C3CCCCC3)ccc2O[C@@H](C)CCCCO[C@@H]1CN(C)Cc1ccncc1, the Potency was “inactive”.
For O=C(c1ccc(S(=O)(=O)N2CCCC2)cc1)N1CCCc2ccccc21, the Potency was inconclusive [inhibitor, single point].
In the case of CCOC(=O)C(CC)c1cc2n(c(=O)c1C#N)CCC21OCCO1 (configuration not stated), the Potency is reported as “inactive”.
With Cc1ccc(NC(=O)CSCC(=O)NCCc2ccccn2)c(C)c1 the Potency was “inactive”.
With Cc1ccc(-n2c(N)c(C#N)c(-c3ccc(Cl)cc3)c(C#N)c2=O)cc1 the Potency was inconclusive [inhibitor, single point].
For Cc1ccc(C(=O)OCC(=O)N2CCC(c3ccccc3)=N2)c(C)c1, the Potency was inconclusive [inhibitor, partial curve, poor fit].
For CC1Cc2nc(SCC(=O)Nc3ccc4c(c3)OCCO4)n(C)c(=O)c2S1 (configuration not stated), the Potency was inconclusive [inhibitor, partial curve].
In the case of Cc1nc2ccccc2c2oc(C(=O)NCCCN3CC(C)CC(C)C3)cc12 (configuration not stated), the Potency is reported as inconclusive [inhibitor, single point].
In the case of O=C(c1ccco1)N1CCN(C(c2cccs2)c2sc3ncnn3c2O)CC1 (configuration not stated), the Potency is reported as “inactive”.
In the case of Cc1ccc(S(=O)(=O)N2CCN(C(=O)Cc3ccc4c(c3)OCCO4)CC2)cc1C, the activity change, negative = growth inhibition is reported as inconclusive: -5.98% [inhibitor].
With Cc1ccc2c(CN(Cc3ccccc3)Cc3ccccc3)cc(=O)oc2c1 the Potency was inconclusive [inhibitor, single point].
In the case of O=C(c1cccc(C(F)(F)F)c1)c1c[nH]c(C(=O)NCCCN2CCOCC2)c1, the Potency is reported as “inactive”.
For Cc1ccc(SC[C@H](c2ccccc2)N2CCN(CCc3ccccc3)CCC2=O)cc1, the Potency was inconclusive [inhibitor, single point].
For CCC(C(=O)NCc1ccc2c(c1)CCN2C(=O)c1ccc(F)cc1)c1ccccc1 (configuration not stated), the Potency was “inactive”.
In the case of COC(=O)c1cc(Cc2ccc(N)c(C(=O)OC)c2)ccc1N, the Potency is reported as “inactive”.
In the case of Cc1noc(-c2ccc(-c3noc(-c4ccccc4)n3)cc2)n1, the Potency is reported as “inactive”.
For Cc1cccc(NC(=S)N(Cc2cccs2)Cc2cc3cc(C)ccc3[nH]c2=O)c1, the Potency was active: 18.4 µM.
In the case of O=C(c1cnccn1)N1CCN(c2ccccc2)CC1, the Potency is reported as “inactive”.
With CCc1nc2ccc(C(=O)NCCN3CCOCC3)cn2c1N(CC)CCOC the Potency was inconclusive [inhibitor, partial curve, poor fit].
With COc1ccccc1NC(=O)Nc1ccc(C(N)=O)cc1 the Potency was “inactive”.
With O=C(NC(=O)c1cc([N+](=O)[O-])ccc1Cl)C1=C(N2CCCC2)COC1=O the Potency was inconclusive [inhibitor, full curve, poor fit].
For CCn1c(Cc2ccc(OC)cc2)nnc1SCC(=O)Nc1nc2ccccc2s1, the Potency was inconclusive [inhibitor, single point].
In the case of CCC(CO)n1c(SCc2cc(=O)oc3cc(C)ccc23)nc2ccccc2c1=O (configuration not stated), the Potency is reported as inconclusive [inhibitor, partial curve, poor fit].
For COc1ccccc1NC(=O)NC1CCCCCCC1, the Potency was “inactive”.
For COc1ccc(Cl)cc1NS(=O)(=O)c1ccc2c(c1)NC(=O)CCS2, the Potency was inconclusive [inhibitor, partial curve, poor fit].
With CCc1ccc(C2CC(=O)c3c([nH]c(C(=O)OCc4ccc(C)cc4)c3C)C2)cc1 (configuration not stated) the Potency was active: 6.51 µM.
In the case of COc1ccc(F)cc1CN1CCN(C(=O)c2ccc(S(=O)(=O)N3CCCCCC3)cc2)CC1, the Potency is reported as inconclusive [inhibitor, single point].
With CC1(C)CCC[C@@]2(C)CC=C(C(=O)O)[C@@H]3C[C@]312 the Potency was “inactive”.
For CCOC(=O)/C=C/S(=O)(=O)c1ccc(NC(C)=O)cc1, the Potency was active: 1.3 µM.
With O=C(CC1(O)C(=O)c2ccccc2C1=O)c1ccccc1 the Potency was inconclusive [inhibitor, partial curve, poor fit].
For CCc1nc2ccc(C(=O)NCCc3ccc(OC)cc3OC)cc2nc1CC, the Potency was active: 25.9 µM.
For O=C(Nc1ccc(N2CCCC2)c(Cl)c1)c1cccs1, the Potency was “inactive”.
In the case of Cc1nn(-c2ccccc2)c(NC(=O)c2cccs2)c(-c2ccccc2Cl)c1=O, the Potency is reported as “inactive”.
In the case of C=CC[C@@H](CC(=O)N(CCO)Cc1ccccc1)C(=O)NCCOC(=O)[C@@H](CC=C)Cc1ccc(F)cc1, the Potency is reported as active: 20.6 µM.
With Cc1ccccc1Nc1nc(N)nc(CSc2nc3ccccc3c(=O)n2C)n1 the Potency was active: 9.2 µM.
With CC(=O)N1c2ccccc2C2CCCC[C@H]21 (some centres not stated) the Potency was inconclusive [inhibitor, partial curve].
For O=C(Nc1cccc(S(=O)(=O)NC2=NCCC2)c1)c1cnc(Cl)c(Cl)c1, the Potency was “inactive”.

— PubChem BioAssay AID686979 (National Center for Advancing Translational Sciences (NCATS), 2013)
On the % scale 0 is the no-effect control and ±100 the full control effect; potency means the concentration at half of the fitted maximal effect; tags describe the fitted curve by direction and shape.
